About 1,200 (2.5%) of roughly 48,000 compounds were called active. Another 2% or so got no clear call; they are omitted.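 Rule for the calls: active = activation of at least 60% and not above a set upper limit (about 1 call in 100 departs from these limits); inconclusive = activation of 40% to 60%, or above that upper limit; inactive = activation under 40%.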 The list shows a part of the results.
Each compound was assayed against Probable G-protein coupled receptor 32 (Homo sapiens) (UniProt O75388) (assay: qHTS for Agonists of Human Resolvin D1 Receptor DRV1). Settings: CHO-K1 GPR32 beta-arrestin PathHunter luminescence, 90 min; at 76.9 µM; hits give high values; zero percent set by DMSO-only wells.
Chain of UniProt O75388 (O75388 whole entry, looked up, the tested form may be a part): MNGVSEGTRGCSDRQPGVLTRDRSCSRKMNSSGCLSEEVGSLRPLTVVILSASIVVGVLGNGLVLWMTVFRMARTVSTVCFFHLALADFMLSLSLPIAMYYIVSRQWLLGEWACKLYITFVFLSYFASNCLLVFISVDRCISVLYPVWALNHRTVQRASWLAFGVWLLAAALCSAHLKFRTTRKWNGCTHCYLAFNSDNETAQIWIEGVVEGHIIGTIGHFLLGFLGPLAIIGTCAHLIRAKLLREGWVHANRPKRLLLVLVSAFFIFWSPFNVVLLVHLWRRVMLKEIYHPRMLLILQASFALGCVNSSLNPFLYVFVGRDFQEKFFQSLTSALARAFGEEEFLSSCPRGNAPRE
Procedure, shortened: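 PathHunter enzyme-fragment complementation, CHO-K1 GPR32 stable line; 2,500 cells/well, overnight attach; cpd 90 min 37 °C 5% CO2; detection reagent 1 h RT; chemiluminescence. DMSO = EC0.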
In the case of `Cc1ccc(NC(=O)CSc2nc(=O)n(Cc3ccncc3)c3c2CCC3)cc1Cl`, the activation is reported as inactive: -9.3%.
`Cc1ccc(Cl)cc1N(C)C(=O)c1sc2nc3n(c(=O)c2c1C)CCCC3` was tested, and the activation was inactive: -16%.
For `COc1ccc(Nc2ncc(C(=O)Nc3cccc(OC)c3)c3ccccc23)cc1`, the activation was inactive: -20.9%.
In the case of `COC(=O)c1cc(NC2(c3ccccc3)C(=O)c3ccccc3C2=O)cc(C(=O)OC)c1`, the activation is reported as inactive: -9.9%.
With `CC1CCN(S(=O)(=O)c2ccc3[nH]ccc3c2)CC1` the activation was inactive: -16.2%.
With `Brc1ccc(-c2cn3cc(Cc4ccccc4)sc3n2)cc1` the activation was inactive: -2.9%.
`Cn1cc(CCCC(=O)NCc2ccc(F)cc2)c2ccccc21` was tested, and the activation was inactive: -26.7%.
In the case of `O=C1NC(NS(=O)(=O)c2ccccc2)(C(F)(F)F)C(=O)N1CCc1ccccc1` (stereo not drawn), the activation is reported as inactive: 5.97%.
In the case of `CCOc1ccc(-c2cc3nc(C4CCN(C(=O)OC(C)(C)C)CC4)c(C(=O)Nc4cccc(Cl)c4C)cn3n2)cc1`, the activation is reported as inactive: -14.5%.
`CCOC(=O)c1ccc(NC(=O)c2noc3c2CCCC3)cc1` was tested, and the activation was inactive: 11.8%.
In the case of `Cc1ccc2[nH]c3c(=O)n(CC(=O)N4CCN(c5ccccc5F)CC4)ncc3c2c1`, the activation is reported as inactive: -8.63%.
`CCN(c1ccccc1)c1ncnc2c1cnn2-c1ccc(OC)cc1` was tested, and the activation was inactive: -16.8%.
For `O=C(CCC(=O)N1CCOc2ccccc21)NCc1cccs1`, the activation was inactive: -5.76%.
`CC(NCCC(c1ccccc1)c1ccccc1)c1ccccc1` (stereo not drawn) was tested, and the activation was inactive: 31.3%.
For `COc1ccc(Cn2c(CNC(=O)Cc3ccc(OC)c(OC)c3)nc3cccnc32)cc1`, the activation was inactive: -12.3%.
For `CC(=O)N1CCCc2cc(S(=O)(=O)N3CCCC(C(=O)Nc4ccc(F)cc4F)C3)ccc21` (stereo not drawn), the activation was inactive: 13.7%.
For `Cc1cc(N2CCN(C)CC2)nc2ccc(NC(=O)Nc3ccc(F)cc3)cc12`, the activation was inactive: 30.1%.
With `O=S(=O)(NCCc1nnc2ccc(SCc3cccc(Cl)c3)nn12)c1ccccc1` the activation was inactive: -22.4%.
With `COc1ccc(-c2cc(C(F)(F)F)c(C#N)c(SCC(=O)Nc3cccc(C)c3)n2)cc1` the activation was inactive: -0.509%.
In the case of `O=C(NCC(c1ccco1)S(=O)(=O)c1ccc(Cl)cc1)c1ccc(C(F)(F)F)cc1` (stereo not drawn), the activation is reported as inactive: -2.31%.
With `O=C(Cn1c(=O)n(Cc2ccco2)c(=O)c2sc3ccccc3c21)Nc1ccc(F)cc1F` the activation was inactive: 17.8%.
`COc1ccc(C(=O)N(Cc2ccco2)Cc2ccccc2F)cc1Cl` was tested, and the activation was inactive: -11.5%.
In the case of `Cc1ccc(Cn2c(SCc3ccc(C(=O)O)cc3)nc3cccnc32)cc1`, the activation is reported as inactive: -2.1%.
For `COc1cccc(CC(=O)Nc2c(C(=O)N3CCN(c4ccccc4)CC3)oc3ccccc23)c1`, the activation was inactive: -32.3%.
For `CCOc1ccc(CCNC(=O)c2ccc3nc(N4CCC(C)CC4)sc3c2)cc1OCC`, the activation was inactive: -5.23%.
In the case of `CCN(CCCNC(=O)CN1N=C(c2ccccc2)CCC1=O)c1cccc(C)c1`, the activation is reported as inactive: -25.9%.
`CSc1ncc(Cl)c(C(=O)Nc2c(C(=O)c3ccc(C)cc3)oc3ccccc23)n1` was tested, and the activation was inactive: 1.92%.
`CCC(C)n1c(=O)c2sccc2n2c(CCCC(=O)Nc3ccc(F)cc3)nnc12` (stereo not drawn) was tested, and the activation was inactive: -11.1%.
`COc1ccc(-c2nc(-c3ccccc3)c(-c3ccc(F)cc3)[nH]2)c(OC)c1C` was tested, and the activation was inactive: -7.39%.
In the case of `Cc1ccc(Cl)cc1NC(=O)Cn1ncc2c(C)n(Cc3ccccc3F)c(C)c2c1=O`, the activation is reported as inactive: -13.6%.
With `CC(C)(C)NC(=O)c1ccc2nc(CCc3ccccc3)oc2c1` the activation was inactive: -3.13%.
For `CC1CN(C(=O)CCC(=O)NCc2ccccc2)c2cc(Cl)ccc2O1` (stereo not drawn), the activation was inactive: -20.2%.
`Cc1cc(C)cc(N2C(=O)CCSC23C(=O)N(Cc2ccccc2)c2ccccc23)c1` (stereo not drawn) was tested, and the activation was inactive: -23.5%.
With `CCOc1ccc(CCNC(=O)c2ccc3c(c2)sc2nc(-c4ccc(F)cc4)cn23)cc1OCC` the activation was inactive: -12%.
With `O=S(=O)(NCCc1csc2nc(-c3ccc(F)cc3)nn12)c1ccc(Oc2ccccc2)cc1` the activation was inactive: 6.73%.
`CC(C)c1ccc(NC(=O)CCn2c(=O)c3cccn3c3ccccc32)cc1` was tested, and the activation was inactive: -11%.
For `COc1cccc(CNCCSc2nnnn2C)c1OCc1ccc(F)cc1`, the activation was active: 81.1%.
For `Cc1ccc(C(CC(=O)Nc2ccc(F)c(Cl)c2)N2Cc3ccccc3C2=O)cc1` (stereo not drawn), the activation was inactive: 8.98%.
`COc1cccc(NC(=O)N(Cc2c[nH]c3ccccc23)C2CCCCC2)c1` was tested, and the activation was inactive: -2.4%.
`CCOC(=O)c1[nH]c(C)c(CCC(=O)Nc2ccc(Br)c(C)c2)c1C` was tested, and the activation was inactive: -15%.
In the case of `Cc1ccc(N2CC(NC(=O)C3CC3)CC2=O)cc1C` (stereo not drawn), the activation is reported as inactive: -2.48%.
`CCOC(=O)c1ccn(-c2nc(-c3cccc(OC)c3)cc(C(F)(F)F)n2)n1` was tested, and the activation was inactive: -20.8%.
In the case of `Cc1nc2sccn2c(=O)c1S(=O)(=O)Nc1ccc(N2CCN(C(=O)C(C)C)CC2)cc1`, the activation is reported as inactive: -63.8%.
For `COc1cc(C(=O)Nc2nonc2-c2ccc(Cl)cc2)cc(OC)c1OC`, the activation was inactive: -5.15%.
In the case of `Cc1ccc(NC(=O)Cn2cnc3sc(C)c(S(=O)(=O)N4CCN(c5ncccn5)CC4)c3c2=O)cc1F`, the activation is reported as inactive: -12.1%.
With `COC(=O)c1ccc(NC(=O)CC2C(=O)N(c3ccccc3)C(=O)N2Cc2ccco2)cc1` (stereo not drawn) the activation was inactive: -20.9%.
`Cc1cccc(N2CCN(S(=O)(=O)c3c(C(=O)N4CCC(C)CC4)c(C)n(C)c3C)CC2)c1C` was tested, and the activation was inactive: -36.7%.
With `Cn1nnnc1SCCCNCc1cc(Cl)ccc1OCc1ccccc1F` the activation was inactive: 14.4%.
`CCCCCc1nn2cc(-c3ccccc3)nc2s1` was tested, and the activation was inactive: -11.5%.
For `CCCc1cnc2c(c1SCC(=O)Nc1ccccc1F)c(=O)n(C)c(=O)n2C`, the activation was inactive: -21.4%.
In the case of `Cc1cccc(CNC(=O)C2CCN(S(=O)(=O)c3ccc4c(c3)CCCN4C(=O)C3CCC3)CC2)c1`, the activation is reported as inactive: -16%.
In the case of `COc1ccc(NC(=O)CSC2=Nc3ccccc3C3=NC(CC(=O)NCc4ccc5c(c4)OCO5)C(=O)N23)cc1` (stereo not drawn), the activation is reported as inactive: -8.47%.
In the case of `CCOc1ccc(C(c2c(O)cc(C)n(Cc3ccco3)c2=O)N2CCN(c3ccccc3)CC2)cc1` (stereo not drawn), the activation is reported as inactive: -13.5%.
With `Cc1ccc(C2C=C(c3ccc(Cl)cc3)Nc3nc(NC(=O)c4ccco4)nn32)cc1` (stereo not drawn) the activation was active: 108%.
In the case of `CCCC12CN3CC(CCC)(CN(C1)C3c1c(C)[nH]c(=O)[nH]c1=O)C2=O` (stereo not drawn), the activation is reported as inactive: -10.2%.
For `O=C(Nc1ccc(F)cc1F)N1CCN(c2ccc(Cl)c(Cl)c2)CC1`, the activation was inactive: 28.4%.
With `CCc1nn(Cc2c(C)cc(C)cc2C)c(=O)c2cc3cc(C)ccc3n12` the activation was inactive: 3.49%.
With `COc1cc(Nc2ncc3c(n2)CCN(Cc2cc(F)cc(F)c2)C3)cc(OC)c1` the activation was inactive: -5.59%.
With `COc1ccccc1NC(=O)CSc1oc(-c2ccc(F)cc2)nc1S(=O)(=O)c1ccc(Br)cc1` the activation was inactive: -11.6%.
`CC(C)(C)c1ccccc1NC(=O)c1cnn2c(C(F)F)cc(-c3ccccc3)nc12` was tested, and the activation was inactive: -4.97%.
`CCOC(=O)c1cnc(N2CCN(c3ccc(C)cc3C)CC2)c2ccccc12` was tested, and the activation was inactive: -24%.
With `Cn1c(=O)c2c(SCC(=O)Nc3ccc(F)cc3F)nc(C3CCCC3)nc2n(C)c1=O` the activation was inactive: 5.05%.
For `Cc1ccc(C)c(NC(=O)Cn2ccn(-c3ccc(F)cc3)c(=O)c2=O)c1`, the activation was inactive: -5.33%.
In the case of `CSc1cccc(NC(=O)CN2C(=O)COc3ccc(S(=O)(=O)N4CCC(C)CC4)cc32)c1`, the activation is reported as inactive: -20.6%.
In the case of `Nc1nc2ccc(Cl)cc2c2nc(-c3ccco3)nn12`, the activation is reported as inactive: 15.1%.
In the case of `Cc1cc(C)cc(Nc2cc(C)nc3nc(-c4ccco4)nn23)c1`, the activation is reported as inactive: 9.3%.
`OC1C(O)C(O)C(O)C(O)C1O` (stereo not drawn) was tested, and the activation was inactive: -1.78%.
For `Cc1ccc(-c2nc3c4ccccc4n(CC(=O)N4CCN(c5ccc(F)cc5)CC4)c(=O)n3n2)cc1`, the activation was inactive: -7.54%.
With `Cc1ccc(CN(C(=O)c2ccccc2[N+](=O)[O-])c2ccccn2)cc1` the activation was inactive: -7.61%.
`Cc1cc(N2CCC(C(=O)NCCC(C)C)CC2)n2nc(C)c(-c3ccc(Cl)cc3)c2n1` was tested, and the activation was inactive: 13.2%.
`CCC(C)NC(=O)Cn1c(-c2cccs2)cc2cc(Cl)ccc21` (stereo not drawn) was tested, and the activation was inactive: 0.268%.
`CCOC(=O)c1c(NC(=O)c2cc(-c3ccc(Cl)cc3)on2)sc(C)c1C` was tested, and the activation was inactive: 37.6%.
With `Cc1cc(C)cc(NC(=O)Cn2c(=O)n(Cc3ccc4c(c3)OCO4)c(=O)c3oc4ccccc4c32)c1` the activation was inactive: -2.18%.
`Cc1cccc(CNC(=O)Cn2ccc3cc(S(=O)(=O)N4CCC(C)CC4)ccc32)c1` was tested, and the activation was inactive: 3.38%.
With `O=C(Cn1c(=O)n(Cc2nc(-c3ccccc3)no2)c(=O)c2cc3c(cc21)OCO3)Nc1cccc(C(F)(F)F)c1` the activation was inactive: -15.2%.
In the case of `COc1ccc(-c2ccc(CCC(=O)O)n2-c2cc(Cl)ccc2O)cc1`, the activation is reported as inactive: -13.1%.
With `COc1ccccc1-c1cc(C(F)(F)F)nc(S(=O)(=O)CCCC(=O)Nc2ccc(F)cc2F)n1` the activation was inactive: -16.9%.
`CCOC(=O)c1c(C)[nH]c(C)c1S(=O)(=O)N(C)CC(=O)Nc1cccc(C(F)(F)F)c1` was tested, and the activation was inactive: -17.7%.
`CCOC(=O)C1CCN(C(=O)Cn2ncc3c([nH]c4ccccc43)c2=O)CC1` was tested, and the activation was inactive: -12%.
For `COc1cccc(C2CC(=O)Nc3c2c(=O)n(C)c2nc4ccccc4n32)c1` (stereo not drawn), the activation was inactive: 8.06%.
For `CCC(C)N(C)C(=O)c1cc2ccccc2c(-c2ccccc2Cl)n1` (stereo not drawn), the activation was inactive: -17.1%.
With `CCOc1ccc(-c2csc(-c3c(N)c(C(=O)c4ccc5c(c4)OCO5)n4ccccc34)n2)cc1` the activation was inactive: -4.59%.
For `CCOc1ccccc1NC(=O)c1nn(C)c2c1CSc1ccccc1-2`, the activation was inactive: 3.13%.
